From PubChem BioAssay AID488969 (Vanderbilt High Throughput Screening Facility, 2010)
In all, about 110,000 compounds were measured (“z-score”: median about -0.1, highest 2% from about 2 on). Some of the results follow. Calls of active or inactive are those of the source.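 How the source made its calls: active means z-score in the third read window above 3 or below -3; inactive means the rest.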

Molecular target: Metabotropic glutamate receptor 8 (Rattus norvegicus) (UniProt P70579)
Test: rat mGluR8 modulators via GIRK flux, primary screen, cell-based, thallium flux, HTS (AID 488969)
Conditions: HEK293 rat mGluR8, GIRK (G protein-gated inwardly rectifying potassium channel) thallium flux, FluoZin2; at 10 µM; stronger effect = higher value; submaximal glutamate (EC20) added with thallium

Sequence of UniProt P70579 (P70579 whole entry, looked up): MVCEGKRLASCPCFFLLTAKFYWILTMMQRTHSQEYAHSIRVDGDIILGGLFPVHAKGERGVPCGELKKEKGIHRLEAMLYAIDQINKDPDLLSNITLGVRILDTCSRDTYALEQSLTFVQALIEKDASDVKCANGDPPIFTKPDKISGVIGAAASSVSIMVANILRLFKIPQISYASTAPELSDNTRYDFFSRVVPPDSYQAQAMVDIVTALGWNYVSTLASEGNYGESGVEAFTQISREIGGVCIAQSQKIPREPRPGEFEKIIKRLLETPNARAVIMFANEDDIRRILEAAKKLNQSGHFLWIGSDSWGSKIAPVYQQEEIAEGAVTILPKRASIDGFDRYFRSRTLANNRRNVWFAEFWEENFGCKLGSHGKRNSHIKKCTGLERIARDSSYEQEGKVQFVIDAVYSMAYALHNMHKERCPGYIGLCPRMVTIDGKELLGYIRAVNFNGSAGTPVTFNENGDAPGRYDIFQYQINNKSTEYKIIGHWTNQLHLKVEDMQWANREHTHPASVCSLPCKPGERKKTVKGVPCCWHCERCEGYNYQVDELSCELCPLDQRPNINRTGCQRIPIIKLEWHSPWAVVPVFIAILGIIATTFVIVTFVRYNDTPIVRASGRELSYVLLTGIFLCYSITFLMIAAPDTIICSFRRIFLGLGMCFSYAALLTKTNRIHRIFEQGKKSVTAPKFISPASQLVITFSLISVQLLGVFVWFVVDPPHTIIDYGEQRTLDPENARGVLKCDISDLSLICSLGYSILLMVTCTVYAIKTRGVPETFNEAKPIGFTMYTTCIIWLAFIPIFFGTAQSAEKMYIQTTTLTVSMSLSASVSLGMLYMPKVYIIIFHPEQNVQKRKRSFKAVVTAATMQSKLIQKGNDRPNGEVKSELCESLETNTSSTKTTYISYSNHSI

Compound	z-score
COc1ccc(NC(=O)OCCn2c([N+](=O)[O-])cnc2C)cc1	-0.144
Cc1ccc(NC(=O)C(C)N2C(=O)C3C4CC(C(Br)C4Br)C3C2=O)cc1 (stereo not given)	0.288
Cc1cc(Cl)c(S(=O)(=O)Nc2ccc3c(c2)OCCO3)cc1OCC(N)=O	0.0293
CC1=C(C(=O)OCC2CCCO2)C(c2ccc(C)o2)C2=C(CC(c3ccc(F)cc3)CC2=O)N1 (stereo not given)	active: -3.31
CCC(C(=O)c1ccc2ncccc2c1)c1ccccc1 (stereo not given)	-0.445
CC(C)Cc1cc(C(=O)Nc2cc(Cl)ccc2Cl)no1	-1.6
CCCN(CCC)CCCOC(=O)c1ccc(Cl)cc1Cl	active: 3.95
CN(C)S(=O)(=O)c1cccc(NC(=O)c2cc3ccccc3o2)c1	-0.921
CCCNC(=O)C(NS(=O)(=O)c1cccc2nsnc12)c1ccccc1 (stereo not given)	-0.0978
CCOc1ccc(S(=O)(=O)Nc2ccc(O)c(Sc3ncn[nH]3)c2)cc1	0.432
CC1CCN(S(=O)(=O)c2cc(Cl)ccc2Br)CC1	0.238
Fc1ccc(-c2nnc(-n3nnc4ccccc43)c3ccccc23)cc1	-0.122
COc1cccc(C(=O)Nc2ccc3c(c2)C(=O)c2ccccc2C3=O)c1	0.437
CN(Cc1ccccc1)C(=O)c1cc(-c2ccc(Br)cc2)on1	0.618
COC(=O)c1cc(C)sc1NC(=O)C1CC=CCC1C(=O)O (stereo not given)	-0.00112
O=C(CCc1nc2ccccc2c(=O)[nH]1)OCc1nnc(-c2ccccc2)o1	0.0303
COc1cc(C(=O)Nc2cc(-c3nc4cc(C)ccc4o3)ccc2C)cc(OC)c1OC	0.403
COc1ccc(CC(NC(C)=O)C(=O)NC2CCN(C(=O)Nc3ccc(Cl)cc3)CC2)cc1OC (stereo not given)	1.04
COc1ccc(CCN2C(=O)CC(NNC(=O)c3ccc(F)cc3)C2=O)cc1OC (stereo not given)	-0.344
COc1ccc(NC(=O)c2ncn[nH]2)cc1	0.997
COC(=O)/C(=N\Nc1ccc(Cl)cc1)Sc1nnc(-c2ccc(OC)cc2)n1C	0.115
O=C(CCCN1C(=O)c2ccccc2C1=O)Nc1c(C(=O)C2CC2)oc2ccccc12	-1.22
COc1ccc(CN=C(NS(=O)(=O)c2cccs2)SC)cc1	-0.23
Nc1nc(CN2CCN(c3ccccc3)CC2)nc(N2CCCc3ccccc32)n1	0.216
CCCCCn1c(C(C)NC(=O)CCC)nc2ccccc21 (stereo not given)	1.76
CCCCS(=O)(=O)NC1=NCN(CC)CN1	-0.22
CCc1ccc2c(CN3CCN(S(=O)(=O)c4cccs4)CC3)cc(=O)oc2c1	-0.124
COc1ccc(/C=C/C(=O)OCC(=O)c2c(N)n(C)c(=O)n(C)c2=O)cc1	0.0243

Compound	z-score
Cc1cccc(NC(=S)NCc2cccn2C)c1	0.577
Cc1ccc2cc3cc(C(=O)N(CC(=O)NC4CCCC4)c4cccc(C)c4C)sc3nc2c1	-0.276
CCOc1ccc(-c2nc(CSc3nnc(N)s3)cs2)cc1OC	-0.352
CCOC(=O)/C=c1\s/c(=C\c2c(OC)ccc3ccccc23)c(=O)n1CC(=O)NCC1CCCO1 (stereo not given)	0.0525
C=CCSc1nc(N)c(C(=O)Nc2ccccc2OC)cc1C(=O)Nc1ccccc1	-0.95
COc1ccc(C(=O)Nn2cnnc2)cc1	-0.00169
CCCCC(=O)OCc1nc(N)nc(Nc2ccccc2C)n1	-0.161
CN(c1ccc(C(=O)NCc2ccccc2)cc1)S(C)(=O)=O	-0.195
CCOC(=O)N/N=C/c1cn(Cc2ccc(Cl)cc2)c2ccccc12	-1.29
COc1cc(NC(=S)Nc2ccc(S(=O)(=O)N3CCOCC3)cc2)cc(OC)c1OC	-0.491
CCOc1ccc(OCCSc2nnnn2-c2ccccc2)cc1	0.118
COc1cc(C(=O)CSc2nnc(-c3ccc(O)cc3)n2CC2CCCO2)ccc1NC(C)=O (stereo not given)	0.663
CC1Cc2nc(SCC(=O)Nc3ccc(F)cc3)n(C)c(=O)c2S1 (stereo not given)	-0.516
COc1cc(C=O)ccc1OCc1c(C)noc1C	-0.212
Cc1ccc(-n2c(C)cc(/C=N/NC(=O)c3ccc(CN4CCOCC4)cc3)c2C)cc1	0.195
CCOc1ccc(N2C(=O)CC(N)C2=O)cc1 (stereo not given)	-0.194
CN1C(=O)C(CC(=O)Nc2ccc(F)cc2)N(CCCc2ccccc2)C1=S (stereo not given)	-0.177
CCOc1ccc(C(=S)N2CCOCC2)cc1OC	0.11
COc1ccc2c(c1)CC/C(=C\C=C\c1ccccc1OC)C2=O	-0.112
COc1ccc(OC)c(-n2c(-c3cnccn3)n[nH]c2=S)c1	-0.441
CCN(c1ccccc1)S(=O)(=O)c1ccc(C(=O)Nc2nnc(COC)o2)cc1	0.137
Cc1cc(C)cc(NC(=O)CCC(=O)Nc2cc(C)on2)c1	-0.172
O=C(Nc1ccc(C(=O)O)cc1)Nc1cccc([N+](=O)[O-])c1	0.124
COc1cc(SC)ccc1C(=O)NCCCOC(C)C	0.144
O=C(Oc1cccc(NC(=O)c2ccco2)c1)c1cccc(S(=O)(=O)N2CCCC2)c1	-1.16
Cc1cc(=O)[nH]c(SC(C(=O)O)c2ccccc2)n1 (stereo not given)	-0.212
COC(=O)c1ccccc1Sc1c(/C=N/OCc2ccc(Cl)cc2)c(C(F)(F)F)nn1C	-0.18
